Assay in all cases: Primary Screen for Target Class Profiling of Small Molecule Inhibitors of Methyltransferases
Assay [1] concerns the target Glycine N-methyltransferase (Homo sapiens) (UniProt Q14749). As to conditions: purified enzyme, MTase-Glo SAH luminescence; measured here: GNMT inhibition; at 40 µM; stronger effect = lower value. An outline of the steps: (§1)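 Each enzyme was reacted with SAM and its substrate, with compounds tested once at 40 uM; SAH formed was read by MTase-Glo luminescence.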
The target of assay [2] is Guanidinoacetate N-methyltransferase (Homo sapiens) (UniProt Q14353). As to conditions: purified enzyme, MTase-Glo SAH luminescence; measured here: GAMT inhibition; at 40 µM; stronger effect = lower value. An outline of the steps: as §1
For assay [3], the target named is Histamine N-methyltransferase (Homo sapiens) (UniProt P50135). The settings on record: purified enzyme, MTase-Glo SAH luminescence; measured here: HNMT inhibition; at 40 µM; stronger effect = lower value. A digest of the protocol:
as §1

The target of assay [4] is Nicotinamide N-methyltransferase (Homo sapiens) (UniProt P40261). As to conditions: purified enzyme, MTase-Glo SAH luminescence; measured here: NNMT inhibition; at 40 µM; stronger effect = lower value. An outline of the steps:
as §1

Assay [5] deals with Phenylethanolamine N-methyltransferase (Homo sapiens) (UniProt P11086). As to conditions: purified enzyme, MTase-Glo SAH luminescence; measured here: PNMT inhibition; at 40 µM; stronger effect = lower value. A digest of the protocol: as §1

Our source for the activity change, negative = inhibition values is PubChem BioAssay AID1745853 (National Center for Advancing Translational Sciences (NCATS), 2022).

Some of the results follow. These are further read-outs of the screen, such as a control signal, another cell line or another target. No call is given for them.
% is scaled to controls: 0 for no effect and ±100 for the full control effect.

For the compound `O=C(c1n[nH]c2c1CCCC2)N1CCCC2(C1)Nc1cccnc1NC2=NC1CCCC1` (stereo not given), the activity change, negative = inhibition in assay [1] is -6.79%; in assay [2], -2.6%; in assay [3], -14.1%; in assay [4], -24.9%; in assay [5], 9.18%.

Turning to `Cc1cc(O)cc(O[C@@H]2O[C@H](CO)[C@@H](O)[C@H](O)[C@H]2O)c1`, the activity change, negative = inhibition in assay [1] is 2.42%; in assay [2], 1.42%; in assay [3] it was 3.45%; in assay [4] it was -9.57%; in assay [5] it was 4.7%.

`Cc1ccc2n1CCN(C(=O)NCc1ccccc1)C2C(C)C` (stereo not given): the activity change, negative = inhibition is -2.94% in assay [1]; 0.927% in assay [2]; -13.2% in assay [3]; -15.3% in assay [4]; -8.31% in assay [5].

On to `Cn1c2c(c3ccccc31)C(C(=O)NCc1ccccc1)N(c1cccc(Cl)c1)C(=O)CS2` (stereo not given), for which the activity change, negative = inhibition in assay [1] was -2.47%; in assay [2] it was 0.741%; in assay [3] it was -5.89%; in assay [4], -15.7%; in assay [5], -9.04%.

Regarding `COc1ccc2cc3n(c2c1)CC(C)(C(=O)NC1CCCC1)N(c1cccc(F)c1)C3=O` (stereo not given), the activity change, negative = inhibition in assay [1] is 2.4%; in assay [2], -0.355%; in assay [3], 1.95%; in assay [4], 3.63%; in assay [5], -3.63%.

For the compound `CCCN1C(=O)c2c(C(=O)NCc3cc(OC)ccc3OC)ncn2CC1(C)C(=O)NCc1ccc(C)cc1` (stereo not given), the activity change, negative = inhibition in assay [1] is -1.84%; in assay [2] it was 0%; in assay [3], -1.59%; in assay [4], -1.48%; in assay [5] it was 1.4%.

Take `COc1ccc(NC(=O)CCc2nnc3n(CCCOC(C)C)c(=O)c4ccccc4n23)cc1OC`: the activity change, negative = inhibition in assay [1] was -3.79%; in assay [2], 3.04%; in assay [3] it was -4.1%; in assay [4], 12.5%; in assay [5] it was -7.38%.

`Cc1ccc(C(=O)N2CCC(C(=O)N3CCC(N4CCCC4=O)CC3)CC2)cc1`: the activity change, negative = inhibition in assay [1] was determined as 0.001%; in assay [2], 2.21%; in assay [3] it was 0.722%; in assay [4], 1.98%; in assay [5], 5.61%.

With `CNC(=O)c1cc(C)nc2onc(C3CCCN3C(=O)C(C)(C)C)c12` (stereo not given), the activity change, negative = inhibition in assay [1] is -3.53%; in assay [2], 0.585%; in assay [3] it was 2.06%; in assay [4] it was -2.98%; in assay [5] it was -9.45%.

Consider `Cn1nc(CN2CCOCC2)c2c1CCN(S(=O)(=O)c1cccnc1)C2`, for which the activity change, negative = inhibition is -3.06% in assay [1]; 0.979% in assay [2]; -0.141% in assay [3]; -0.123% in assay [4]; 11% in assay [5].

Take `CCc1ccc(S(=O)(=O)N2[C@@H]3CC[C@H]2CC(NC(=O)c2ccc(F)cc2)C3)cc1` (stereo not given in full): the activity change, negative = inhibition was -7.97% in assay [1]; -7.62% in assay [2]; -7.98% in assay [3]; -16% in assay [4]; -12.5% in assay [5].

Regarding `COc1ccc(CN2CCNC(=O)C2CC(=O)NCc2ccncc2)cc1OC` (stereo not given), the activity change, negative = inhibition in assay [1] was -7.52%; in assay [2], -4.26%; in assay [3], -3.14%; in assay [4], -26.8%; in assay [5], -4.15%.

For the compound `CCOc1ccc(CNC(=O)c2cc3n(n2)CC(C)(C(=O)NCCC(C)C)N(C)C3=O)cc1OC` (stereo not given), the activity change, negative = inhibition in assay [1] is 4.83%; in assay [2] it was 4.98%; in assay [3], 5.51%; in assay [4], 1.07%; in assay [5], -0.646%.

For the compound `Cc1ccc(N2C(=O)c3cc(C(C)(C)C)nn3CC2(C)C(=O)NC2CCCCC2)c(C)c1` (stereo not given), the activity change, negative = inhibition in assay [1] was -4.62%; in assay [2], 2.31%; in assay [3], 0.963%; in assay [4] it was 2.92%; in assay [5], -3.33%.

`CC1(C(=O)NC2CCCCCCC2)Cn2c(cc3occc32)C(=O)N1Cc1ccc(F)cc1` (stereo not given): the activity change, negative = inhibition was -2.24% in assay [1]; 4.8% in assay [2]; -2.26% in assay [3]; -13.1% in assay [4]; -2.84% in assay [5].

For the compound `C=C1C(=O)OC2/C=C(\C)CC3C=C(CC/C=C(\C)CCC12)C(=O)O3` (stereo not given), the activity change, negative = inhibition in assay [1] was -5.89%; in assay [2], -2.42%; in assay [3], 0.852%; in assay [4], -13.3%; in assay [5] it was 2.23%.

Regarding `CC(C)CCn1c(=O)c2ccc(C(=O)NC(C)C)cc2n2c(=O)n(Cc3cccc(Cl)c3)nc12`, the activity change, negative = inhibition is 3.33% in assay [1]; 0.056% in assay [2]; -5.7% in assay [3]; 11.3% in assay [4]; 1.34% in assay [5].
